Reference: the RNAGym collection of RNA variant scans (doi:10.1101/gad.245936.114)
Variants at the background level are over-represented here.

B1: tRNA (parent)
chain: CUCUCGGUAGCCAAGUUGGUUUAAGGCGCAAGACUUUAAUUUAUCACUACGAAAUCUUGAGAUCGGGCGUUCGACUCGCCCCCGGGAGAUUUUUUCCUCGAGCAA

Variants of: B1
Experiment: nonsense suppression (GFP-seq) (ratio to wild type); higher = more function; SUP4oc tRNA, yeast GFP reporter sort-seq
Method in brief: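 To measure nonsense suppression, tRNA variants from a library carrying ~3% random mutations were integrated into the yeast genome alongside RFP and a GFP ochre reporter under galactose control. Growth took place in raffinose/galactose medium supplemented with 80 mg/L adenine, followed by sorting into GFP/RFP bins and Illumina sequencing of each bin (phred ≥30). For each variant with ≥100 reads and ≥30 cells, the bin median GFP/RFP values were weighted by its estimated cell share per bin and referenced to the unmutated parent tRNA.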
A9C G19C U63C U71A C80G gave a nonsense suppression of no more than 0.026. For A9C G25C A30C C34A, the nonsense suppression was no more than 0.026. Variant A9C G26A has a nonsense suppression of no more than 0.026. A9C G26U C75A A89U gave a nonsense suppression of no more than 0.026. In the case of A9C G26U G28C C64U, the nonsense suppression is reported as no more than 0.026. Variant A9C G26U G59A has a nonsense suppression of no more than 0.026. For A9C G28C U71A, the nonsense suppression was no more than 0.026. Variant A9C G32U U58C has a nonsense suppression of no more than 0.026. A9C G59C G61C G84A gave a nonsense suppression of no more than 0.026. For A9C G59C G73A, the nonsense suppression was no more than 0.026. With A9C G59U the nonsense suppression was no more than 0.026. With A9C G66A the nonsense suppression was no more than 0.026. A9C G67A showed a nonsense suppression of no more than 0.026. In the case of A9C G67C, the nonsense suppression is reported as no more than 0.026. With A9C G69A the nonsense suppression was no more than 0.026. A9C G69C G73A showed a nonsense suppression of no more than 0.026. With A9C G73A the nonsense suppression was 0.215. Work on A9C G78C G86U A89G yielded a nonsense suppression of no more than 0.026. Work on A9C G88C yielded a nonsense suppression of no more than 0.026. Variant A9C U16A A24U A31U U57G C64G C68A G88C has a nonsense suppression of no more than 0.026. With A9C U16C C56G C81A the nonsense suppression was no more than 0.026. Variant A9C U16G U35A U58C A62C has a nonsense suppression of no more than 0.026. In the case of A9C U17A C72G, the nonsense suppression is reported as no more than 0.026. Work on A9C U17C C27U G69A yielded a nonsense suppression of no more than 0.026. A9C U17G C34U C77G C83G gave a nonsense suppression of no more than 0.026. Variant A9C U20A U76A C77A has a nonsense suppression of no more than 0.026. With A9C U20C A60C the nonsense suppression was no more than 0.026. A9C U20G G61U C68U showed a nonsense suppression of no more than 0.026. Variant A9C U21A A31G U71C has a nonsense suppression of no more than 0.026. For A9C U21C A24U U63A G69U, the nonsense suppression was no more than 0.026. With A9C U21C A62C C77A the nonsense suppression was no more than 0.026. In the case of A9C U21G A33U G59A U71G G73A, the nonsense suppression is reported as no more than 0.026. With A9C U21G U70G the nonsense suppression was no more than 0.026. Work on A9C U22A yielded a nonsense suppression of 0.709. A9C U22A C56U G88C gave a nonsense suppression of no more than 0.026. With A9C U22C C29A G85U the nonsense suppression was no more than 0.026. Work on A9C U55A U58A yielded a nonsense suppression of no more than 0.026. A9C U57C C82U gave a nonsense suppression of no more than 0.026. Work on A9C U63C yielded a nonsense suppression of 0.202. Variant A9C U70G has a nonsense suppression of no more than 0.026. In the case of A9G A13C A33C, the nonsense suppression is reported as no more than 0.026. A9G A13C C34A G85A showed a nonsense suppression of no more than 0.026. A9G A13C U16C A33G showed a nonsense suppression of no more than 0.026. A9G A13G U22G C34A C83G gave a nonsense suppression of no more than 0.026. Work on A9G A14C A54G G69U yielded a nonsense suppression of no more than 0.026. With A9G A14G the nonsense suppression was 0.0311. A9G A14U A54U U55G G86U showed a nonsense suppression of no more than 0.026. For A9G A14U U63C G65A A89U, the nonsense suppression was no more than 0.026. In the case of A9G A23G C29G U57G, the nonsense suppression is reported as no more than 0.026. A9G A23G U71A C79U G88A gave a nonsense suppression of no more than 0.026. In the case of A9G A23U, the nonsense suppression is reported as no more than 0.026. Work on A9G A23U U55A yielded a nonsense suppression of no more than 0.026. For A9G A24G U63A G84A, the nonsense suppression was no more than 0.026. In the case of A9G A24U G66U C68U G78A, the nonsense suppression is reported as no more than 0.026. Work on A9G A30C C34U G59C U70G yielded a nonsense suppression of no more than 0.026. With A9G A30G C68U the nonsense suppression was no more than 0.026. A9G A30G G61A showed a nonsense suppression of 0.291. With A9G A30G G65C the nonsense suppression was no more than 0.026. A9G A31C G32C U70A C77U showed a nonsense suppression of no more than 0.026. For A9G A31G, the nonsense suppression was 0.259. In the case of A9G A31U U55C U57G, the nonsense suppression is reported as no more than 0.026. Work on A9G A33C yielded a nonsense suppression of no more than 0.026. With A9G A33C G66U the nonsense suppression was no more than 0.026. With A9G A33G U35G G84A the nonsense suppression was no more than 0.026. For A9G A54C, the nonsense suppression was 0.207. In the case of A9G A62C, the nonsense suppression is reported as no more than 0.026. A9G C11A G18U A31U A62C C82A gave a nonsense suppression of no more than 0.026. For A9G C11A U16C C34G A74C, the nonsense suppression was no more than 0.026. With A9G C11G G66A C72U G78A the nonsense suppression was no more than 0.026. For A9G C11U C80G, the nonsense suppression was no more than 0.026. Work on A9G C11U G32C yielded a nonsense suppression of no more than 0.026. Work on A9G C11U G67C C68G C80U yielded a nonsense suppression of no more than 0.026. A9G C12A showed a nonsense suppression of no more than 0.026. In the case of A9G C12G, the nonsense suppression is reported as no more than 0.026. Variant A9G C12U A13U A23C has a nonsense suppression of no more than 0.026. Variant A9G C27G C29G G66C has a nonsense suppression of no more than 0.026. A9G C27G G73C showed a nonsense suppression of no more than 0.026. In the case of A9G C27U, the nonsense suppression is reported as 0.0421. A9G C27U C81G G85C showed a nonsense suppression of no more than 0.026. A9G C27U U70C G84C gave a nonsense suppression of no more than 0.026. A9G C29U C75G gave a nonsense suppression of 0.252. A9G C29U G61C G65A gave a nonsense suppression of no more than 0.026. Work on A9G C34G A54G G73C yielded a nonsense suppression of no more than 0.026. A9G C34G U57C U58C C81U G88U showed a nonsense suppression of no more than 0.026. Work on A9G C34G U71G C75G yielded a nonsense suppression of no more than 0.026. In the case of A9G C34U, the nonsense suppression is reported as no more than 0.026. Variant A9G C56A has a nonsense suppression of no more than 0.026. A9G C56U gave a nonsense suppression of no more than 0.026. With A9G C64G the nonsense suppression was no more than 0.026. A9G C72U showed a nonsense suppression of 0.0591. For A9G C75A, the nonsense suppression was 0.762. Variant A9G C79A G88C has a nonsense suppression of no more than 0.026. In the case of A9G C80A, the nonsense suppression is reported as no more than 0.026. For A9G C80G G85A, the nonsense suppression was no more than 0.026. Variant A9G C81A has a nonsense suppression of no more than 0.026. In the case of A9G C82U, the nonsense suppression is reported as 0.531. A9G C83A gave a nonsense suppression of no more than 0.026. With A9G C83G G88A the nonsense suppression was no more than 0.026. A9G G10A showed a nonsense suppression of 0.0344. A9G G10C showed a nonsense suppression of no more than 0.026. A9G G10C U58C gave a nonsense suppression of no more than 0.026. A9G G10U A13C G69U gave a nonsense suppression of no more than 0.026. Variant A9G G10U C12A G65C has a nonsense suppression of no more than 0.026. A9G G10U U70C A89U gave a nonsense suppression of no more than 0.026. For A9G G15C, the nonsense suppression was 0.173. Work on A9G G15C U22G yielded a nonsense suppression of no more than 0.026. A9G G15U gave a nonsense suppression of 0.0374. In the case of A9G G18C C34G U76C, the nonsense suppression is reported as no more than 0.026. For A9G G18U, the nonsense suppression was no more than 0.026. A9G G19A A33U A60G gave a nonsense suppression of no more than 0.026. A9G G19U C72G A89C showed a nonsense suppression of no more than 0.026. Variant A9G G25A C83G G85U has a nonsense suppression of no more than 0.026. Work on A9G G26C yielded a nonsense suppression of no more than 0.026. A9G G28C U76G gave a nonsense suppression of no more than 0.026. For A9G G32A U58G G85U, the nonsense suppression was no more than 0.026. A9G G59U C77U gave a nonsense suppression of no more than 0.026. A9G G61A A87G gave a nonsense suppression of 0.188. For A9G G61C G65U, the nonsense suppression was no more than 0.026. Variant A9G G61U has a nonsense suppression of 1.1. With A9G G61U C75G the nonsense suppression was 1.12. With A9G G61U U71C the nonsense suppression was no more than 0.026. Work on A9G G65A C81U A89C yielded a nonsense suppression of no more than 0.026. Work on A9G G65C A89G yielded a nonsense suppression of no more than 0.026. For A9G G66A G67U A74G, the nonsense suppression was no more than 0.026. With A9G G66C G78A the nonsense suppression was no more than 0.026. Work on A9G G66C U76A G84U yielded a nonsense suppression of no more than 0.026. For A9G G67C, the nonsense suppression was no more than 0.026. Work on A9G G67U yielded a nonsense suppression of no more than 0.026. In the case of A9G G73A, the nonsense suppression is reported as 0.12. In the case of A9G G73U, the nonsense suppression is reported as 0.053. For A9G G78A, the nonsense suppression was no more than 0.026. A9G G78C gave a nonsense suppression of no more than 0.026. Work on A9G G86A yielded a nonsense suppression of no more than 0.026. In the case of A9G U16A, the nonsense suppression is reported as 0.845. A9G U16A G59U G86C showed a nonsense suppression of no more than 0.026. For A9G U16A U55C, the nonsense suppression was 0.188. A9G U16G A23G A30U C64U showed a nonsense suppression of no more than 0.026. For A9G U17A C27U G32U U57A, the nonsense suppression was no more than 0.026. In the case of A9G U17C, the nonsense suppression is reported as 0.113. With A9G U17C A30U U57C the nonsense suppression was no more than 0.026. Variant A9G U17C G25U C83A has a nonsense suppression of no more than 0.026. For A9G U17G U21G G88A, the nonsense suppression was no more than 0.026. Work on A9G U20A U22G C72U C77U yielded a nonsense suppression of no more than 0.026. Variant A9G U20G A23U has a nonsense suppression of no more than 0.026. For A9G U20G C75G, the nonsense suppression was 0.831. With A9G U20G G28C U35G the nonsense suppression was no more than 0.026. In the case of A9G U21C A60U, the nonsense suppression is reported as no more than 0.026. A9G U21G A74U C77U showed a nonsense suppression of no more than 0.026. With A9G U22A G25U the nonsense suppression was no more than 0.026. In the case of A9G U22G, the nonsense suppression is reported as 0.254. A9G U22G A31C C68A showed a nonsense suppression of no more than 0.026. In the case of A9G U35A G61C, the nonsense suppression is reported as no more than 0.026. A9G U35C C79G showed a nonsense suppression of no more than 0.026. Work on A9G U35C C79U yielded a nonsense suppression of no more than 0.026. Work on A9G U35G G86C yielded a nonsense suppression of no more than 0.026. A9G U55A showed a nonsense suppression of no more than 0.026. A9G U55C gave a nonsense suppression of 0.245. For A9G U55C G69C U71A C80G, the nonsense suppression was no more than 0.026. Variant A9G U55C G86U has a nonsense suppression of no more than 0.026. Work on A9G U55G yielded a nonsense suppression of no more than 0.026. A9G U55G A89C gave a nonsense suppression of no more than 0.026. With A9G U55G G59C C75U C77A A87C the nonsense suppression was no more than 0.026. A9G U57G U58A C64G C77U gave a nonsense suppression of no more than 0.026. In the case of A9G U57G U58A C80A, the nonsense suppression is reported as no more than 0.026. Variant A9G U58A has a nonsense suppression of no more than 0.026. With A9G U63C A74U C75U C79U the nonsense suppression was no more than 0.026. Variant A9G U70A has a nonsense suppression of no more than 0.026.
